Results on one variant are retold here after IntAct's records for PubMed 29990310.

Sequences and labels used below:
B1: Myeloid differentiation primary response protein MyD88 (Homo sapiens), Q99836 (parent)
chain: MAAGGPGAGSAAPVSSTSSLPLAALNMRVRRRLSLFLNVRTQVAADWTALAEEMDFEYLEIRQLETQADPTGRLLDAWQGRPGASVGRLLELLTKLGRDDVLLELGPSIEEDCQKYILKQQQEEAEKPLQVAAVDSSVPRTAELAGITTLDDPLGHMPERFDAFICYCPSDIQFVQEMIRQLEQTNYRLKLCVSDRDVLPGTCVWSIASELIEKRCRRMVVVVSDDYLQSKECDFQTKFALSLSPGAHQKRLIPIKYKAMKKEFPSILRFITVCDYTNPCTKSWFWTRLAKALSLP

This experiment covers variants of B1. The following applies: with tlr2_human TLR2, O60603.
Regarding A247W;K250D, the “effect of a mutation on the interaction” value is “decreasing interaction strength”.
